Laboratory results taken from the supplement of paper PMC10126150.
Sequences with one replicate were seen in a single cluster, so their values are uncertain.

The sequences below were run on ATP (assay: switch fluorescence ratio, 500 uM ATP over buffer (Cy3 cluster intensity, sum of 5 cycles each) (fold (ratio)); higher = stronger signal-on switching upon ATP binding; sequences stand for … in TCGTCGGCAGCGTCAGATGTGTATAAGAGACAGTTTTTTTTTTTTTTTTTTTTTTTTT…TC). Conditions: aptamer strand: ATP DNA aptamer (quencher-CACCTGGGGGAGTATTGCGGAGGAAGG + anchor), 100 nM annealed; ATP concentration: 500 uM; one replicate.
Method in brief: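 The fluorescence ratio divides summed target-cycle Cy3 intensity by summed buffer-cycle Cy3 intensity for each cluster and is averaged per switch-domain sequence. Cy3-labelled switching-strand clusters on a modified Illumina MiSeq flow-cell were annealed to 100 nM quencher-labelled ATP aptamer, then imaged in selection buffer and again after 15 min with 500 uM ATP at 22 °C. Five such cycles were run, with NaOH stripping and re-annealing between them, and clusters outside 100-1000 RFU were excluded.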
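Further: ATP exposure 15 min at 22 °C before imaging.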

Sequence	switch fluorescence ratio
CCCATGTGGA	1.03
ATTAAATGCA	0.992
ACGTGGAGGC	1.02
TAGAACAGTG	1.01
TACTAGTGAA	1.04
ATTTAGGGT	1.01
TGGTTAATC	0.95
TCCTGGGCG	1.07
GTTATCTAGA	1
ATACCGGGCA	1.02
ACTCTGATAT	1.16
GTGCTTGATA	1.03
CGAATGTTCC	1.03
AGGCGCACTT	0.952
ATGCATTCCA	1.04
AAGTGTAGGT	0.977
CGGTGCAGGC	0.843
ATGGTGTTGA	0.987
TGAGCGCTG	0.996
CGCCGGTCAC	1.09
CAATGTCTTT	0.963
AGTTGATTTC	0.948
TAGTTGGGAA	0.989

Sequence	switch fluorescence ratio
AGTGAGTGAT	1
ATACGTTGTC	0.984
CGTTTGAT	0.985
TTCTTGCTTT	1.01
GTTTGGTGCT	1.04
ATATCGGTAT	0.953
ATTTGTGCGT	1.01
CTAATACTGC	1.17
AGGGATTCGT	1
AGGTTCAACA	1.02
ATAGACATTG	0.984
CAAGTAACTT	1.06
AGTGTTGGAC	1.02
TAAAATATGA	1.01
GCAGCCAACG	1.08
GCAGGATATC	1.04
CAGTTTTTG	0.967
TGGTGAGTCT	0.958
GTTGGAATTC	0.967
GGAGGCTTTG	1
GATAGTATTA	1.05
CCCCCACGA	1.74
GTCACACCC	1.21

Sequence	switch fluorescence ratio
ATCTATTTTA	1.02
CCACCTGTAT	1.07
CGAGTAAGAT	1.13
CTCTCAGTTG	1.08
TTGCATAGCT	1
CGAAAGGTAT	1.02
TTACTGCCAC	1.26
TCGAATAGTT	1.03
GCTGCGCCGA	1.05
CAATGCCGCT	1
AAAAATATT	0.99
AGTGCTCGGG	0.98
ATAGTGTTTA	1.02
GGAAAAGAAT	1.02
GGTAAGTCCG	1.01
GAATATTTGT	0.974
CTGCTTGCG	0.993
GGCGGGAGAA	0.984
CCTTTAGCTC	2.2
ACAGTTTACC	1.15
CGCGAGCGCG	0.916
CAGTAAGTTC	1.06
GCTGTCTAGC	1.02

Sequence	switch fluorescence ratio
GGGTCGTCCG	1.01
AAGGGACAGA	0.97
GGCCAGAGAT	0.975
CCTGCTTACA	1.09
TGCTAACTTA	0.982
GCCGGTCACG	0.992
GCCAGTTG	1.04
AAGTGTATTC	0.939
TTAAAGAGGA	0.979
TGCGACGCTC	2.46
GGCTAAACTT	1.04
AAGGAGGAAT	1.47
AACCACGCTG	0.985
ATTATCGGG	0.994
TATCTCTCTA	1.01
GAACTCCCAG	1.16
ACCATGAACG	1.09
TTGCGAAGTC	1.03
AAAGGCCCTG	0.978
CCTGGGCATT	2.18
TGAATGAAGT	1.11
TCGCACGCGC	1.1
TATTAATTTA	1.02

Sequence	switch fluorescence ratio
AATATGGCTG	0.962
TTGTTGTCCT	0.965
CGGGCACAGG	1.34
GGACGGTTAG	0.971
GGGTGCCATA	0.979
AGGCAAATTC	1.08
TAGCTGTCGT	1.03
GACTCCCGTC	1.06
CCATTGAGTT	0.992
AGCATTGGAT	0.991
TTCCCTTGGG	1.07
TCGGTCGAC	1
ACGAAAGTAC	1.26
ATTACAGGAG	1.06
ACATGACTTT	1.08
AAAGTTTGAT	1
TGGGAGTCGT	0.985
CAAAGGAGTG	1.03
CATCTAGTTT	0.998
GTTACGCATG	1.01
TTAATGCAAG	1.02
AAGAATCCGT	1.04
ACGGATGGCC	0.955

Sequence	switch fluorescence ratio
TAGGTTCTA	0.992
AAATTAGACT	0.997
GTTGCAAAGT	1.13
GTGAGTGCGC	0.972
CAGATGTATA	1.05
TTGAGTAGAG	0.992
TTCGGCTATT	0.999
CAGAAAGCGT	1.02
GCGCTTGGCT	0.978
ACGTCTCAAC	1.11
CGCTCTACCG	1.04
CCGGTGACAT	1.23
CCGGGTACGT	1.06
GAGGTTAGAA	1.01
TGACGTATAG	1.02
CCTCTGAAAG	2.4
CTTCGCTCAT	1.93
AGGGCCCCAC	0.993
TCTATAGGGC	1.07
AATCCATCAG	1.02
GGATCAAGTA	1.02
CCCAGGTGGT	1.03
TTACTAAATA	0.989

Sequence	switch fluorescence ratio
AGATCGTCAT	0.966
TAGGAACAG	0.982
CGGTGAAGAC	1.07
ACCGCCGATG	1.22
TTCCGCCCTT	4.96
CCTGAACTGC	1.41
TGTATGTTCG	0.939
GATCATTGGT	1.04
ACATCATCC	1
GAGATGCACT	1
AGCTTGCGTC	0.997
TAGCAAATGG	1.07
ATTGTCAGGC	1.01
ACATATGGGA	1.21
GCCGCATAGA	2.08
GTGCACCTGT	1.03
TTTGATCTAG	1.03
ATAGGGTGAC	0.988
GATAATACGG	1.09
